# Results: the RNAGym collection of RNA variant scans (doi:10.7554/elife.90254)
# The source gives no read counts; variants with many changes may rest on few reads.
# B1: LINE1-mini (parent)
# chain: GGCAGAGCUCAACACAGCGUGGCAAAGUGGCUGUGGCUAGACUGCC
# Variants of: B1
# Assay: self-cleavage, relative activity (ratio to wild type); higher = more cleavage; in vitro, sequencing; the parent is a self-cleaving ribozyme
row,Variant,self-cleavage
1,GGCAGAGCGCAACACAGCGCGGCAAAGUGGAUGUGGCUAGACUGCC,0.05
2,GGAAGAGCUAAACACAGCGUGGCAAAGUGUAUGUGGCUAGACUGCC,0.01
3,GGCAGCACUCAACACAGCGUGGCAAAGUGGCUAUGGCUACAAUGCC,0.07
4,GACAGAGCUCAACACCGCGUGGCAAAGUGGCUGUGGCCAGACUGCC,0.18
5,CGCAGAGCUCGACACAGCGUAGCAAAGUGGCUGUUGCUAGACUGCC,0.01
6,GGCAGGUCUCAACACAGCGUUGCAAAGUGGCUGUGGCUAGGCUGCC,0.01
7,GGCUGAGCUCAACACAACGCGGCAAUGUGGCUGUGGCUAGACUGCC,0.05
8,GGCAGAGCUCUAUACAGCGUGGCAAAGUGGCUGUGGCUUGACUGCC,0.02
9,UGCAGAGCUCAAUCCAGCGUGGAAAAGUGGCUGUGGCUAGACUGCC,0.03
10,GCCAAAGCUCAACACAGCGUUGCAAAGUGGCUGUGGUUAGACUGCC,0.03
11,UGCAGAGCUCAACACAGUGUGGCAAAGUGCCUGUGGCUAGACUGCC,0.11
12,GGCAGAGCUCAACACAGAGUGGCAAAGCAGCUGUGGCUACACUGCC,0.05
13,GUCAGACUUCAACACAGCGUGGCAAAGUGGCUGUGGCUAGACUGAC,0.02
14,AGCAGAGGUCAACACAGCGUGGCUAAGUGGCUGUGGCUAGACUCCC,0.12
15,GGCAUCGCUCACCACGCCGUGGCAUAGUGGCUGUGGCUAAACUGCC,0.03
16,GGCAGACCUCAACACAGCGUGGGAAAGUGGAUGUGGCUAGAUUGCC,0.14
17,GGCAGAGCUCAACACAGCGUGGCAAAGUGCCUAUGGCUAGAGUGCC,0.01
18,GGCAGAGCUCAACACGUCGUGGCAAAGGGGCUGUGGCUAGACUGCC,0.4
19,GGCAGAAUUCAACACAGCUUGGCAAAGUCGCUGUGGCUAGACUGCC,0.03
20,GAUAAAGCUCAACACAGCGUGACAAAUUGGCUGUGGCUAGACUGCC,0.36
21,GUCAGAGCUCAACACAGCGUGGCACAGUGGCUGUGGCUAGACUGCG,0.03
22,GGCAGAGCUCAGCACAGCGUGACAAAGUGGCUGUGGGUAGACUGCA,0.01
23,GGCAGAGCUCGACACAGCAUGGCAAUGUGGCUGUCGCUAGACUGCC,0.01

row,Variant,self-cleavage
1,UGCAGAACUCAACACAGCGUGGCAAAGUGGCUGUGGCUAGAAUGCC,0.35
2,UGCAGAGCUCAACACCGGAUGGCAAAGUGGCAGUGGCUAGACUGCC,0.03
3,GGCAGAGCUCAACACACCGUGACAAAGUGGCUGUGGCUAAACUUCC,0.03
4,GGCAGAGCUCAACACAGCGUGGCUAAGUGGCUGUGGCUAGACCGCU,0.13
5,GGCAGAGUUAAACACAGCGUGGCAAAGUGGCUGUGGCUGGACUGCC,0.11
6,GUCAGAGCUCAACACAGCGUGGCAAAGUCACUGUGGCUAGACUACC,0.1
7,GGCAGAGCUCAACACAGCGUGGCAAAGUGGCUGUGCGUUGACUGCC,0.03
8,GCCAGUGCUCAACACAGCCUGGCAAAGUGGCUGUGGCUAGACUGCC,0.04
9,UGCAGAGCACGACACAGCAUGGCUAAGUGGCUGUGGGUAGACUGCC,0
10,GGCAUAGCUCAACACACCGUGGGAAAGUGGCAGUGGCUAGACUGCC,0.02
11,GGCAGAGCUCAAAACAGCGUGGCAAAGUGGCAAUGGCUAGACUGCC,0.03
12,GGCAGAGCGGAACACAGCGUGGCAAAGUGGCUUUGGCUAGCCUGAC,0
13,GACAGAGCUCAACACAGCGUGGCAAAGUCCCUGUGGCUAGACUGCC,0.03
14,GCCGGAGCUGAACACAGCGUGGCAAAGUGGCUGUGGCUAGACUGCC,0.01
15,UGCAGAGCUCAACUCAGCGUGGCAAAGUGGCUGUGUCUAGACUGCC,0.03
16,GGCAGAACUCAACACAGCGUGGCAAAGUGGAUCUGGCUAGACUGCC,0.28
17,GGCAGAGCUCAACACAGCGUGGAAAACUGGCUAUGUCUAGACUGCC,0.08
18,GGCAGAGCUCAACACAGCGUGACCAAGUGGGUGAGGCUGGACUGCC,0.15
19,GGCAUAGCUCAACACAGCGUUGCGAAGUGGCUGUGGCUAGACUGCC,0.03
20,CGCAGAGCUCAACACAGCGUGGCAAAGUGGGUGUGGCAAGACUGCC,0.01
21,GGCCGAGCUCAACACAGCGUGCCAAGAUGGCUGUGGAUAGACUGCC,0.04
22,GGCAGAGCCCAACACAGCGUGUAAAAGUGGCUGUGGCUAGACUGUC,0.09
23,GGCAGAGAUCUACACAGCGUCGCGAAGUGGCUGUGGCUAGACUGCC,0.02

row,Variant,self-cleavage
1,GGCAGAGCUCAACACAGCGUGGCAUAGUGGCUAUGGUUAGACUGCC,0.03
2,CGCAGAGCUAAACACAGCGUGGCAAAGUGGCAGUGGCUAGACUGGC,0.01
3,GGCAGAGAUCAACACAGUGUGGCAAAGAGGCAGUGGCUAGACUGCC,0.04
4,GGCAGAGCUCAACACAGCGUUGCAUAAUGGCUGUGGCCAGACUGCA,0.02
5,GGCAGAGCUCAACACAGCGGGGCAAAGUGGCUGUGGCUAGAUUACC,0.12
6,GGCAGAGCUCAACACCGGGUGGCAAAGUGGCUGUGGCAAGACUGCC,0.02
7,GGCAGAGGUCAACACAGCGUGGCAAAGUUUCUAUGGCUAGACUGCC,0.13
8,GGCAGAGCUCACCACAGCGUGGCUAAGUGGAUGUGGCUAGACUGCC,0.01
9,GUCAGAGCUCAACACAGCGUGGCAAAGUGGCUGUGGCUAGAUUGCA,0.08
10,GGCAGGGAUCAACAGAGCGUGGCAAAGUGGCUGUGGCUAGACUGCC,0.32
11,GGUAGAGCUCAACACAGCGAUGCAAAGUGGCUGUGGCUAGACUGCC,0.08
12,GGCAAAUCUUAACACAGCGUGGCAAAGUGGCUGUGGCUAGACUGCC,0.09
13,GGCAGAGUUCAACACAGCGUGGCAAAGUCGCUGUGGCUAGACUCCC,0.04
14,GGCAGAGCUCAACACAGCGUGGCAAAGUGGCUAUGGCUGGUCUGCU,0.24
15,GGCAGAGCCCAGCACAGCGUGGCAAAGUGGCUGAGACUAGACUGCC,0.05
16,GACAGAGCUCAACACAGCGUGGCAAAGUGGCCGUGGCUAGACUGUA,0.48
17,GGCAGAGCUCAACACGGAGUGGCAAAGUGGCAGUGGCUAGACUGCC,0.2
18,GGCAGAGCUCCACACAGCGCGGUAAAGUGGCUGUAGCUUGACUGCC,0.01
19,GGUAGAGAUCAACACAGCGUGGCAUAGUGGCUGUGGCUAGACUGCC,0.21
20,GGCAGAGAUCAACACAUCGUGGCAAAGUGGCUGGGGCUAGACUGCC,0.17
21,GGCAGAGCUCAACACAGCGUGGCAAACUGGCUGUGUCUAGAUUGCC,0.02
22,GGCAGAGCUCAACACAGCGUGGCAAAGUGGCUGUAACAAGACUGCC,0.05
23,GGCAGAGCUCAAUACAGCGUGGCAACGUGGCUCUGGCUAGACUGCC,0.06

row,Variant,self-cleavage
1,GGCGGAGCUCAACACAGCGUGGCGAAGUGGCUGUGGCUAAACUGCC,0.21
2,GGCCGAGCUCAACACAGCAUGGCAACGUGUCUGUCGCUAGACUACC,0.04
3,GUCAGAGCUCAACACAGUGUGGCAAAGUUGCCGUGGCUAGACUGCC,0.03
4,GGCAGAGUUCAACACAGCGUGGCUAAGUGGCUGUGUCUAGACUGCC,0.17
5,GGCAGAGAUCAACACAGCAUGGCAAAGUGGCUGUGGCUACACUGCC,0.31
6,GGCAGAGCUCAACACAGCGUGGCAAAGUUAGUGUGGCUAGACUGCC,0.07
7,GGCAGAGCUCAACACAGCAUGGCAAAGUGGCUGUGUCUUGAAUGCC,0.01
8,GUGAGAGUUCAACUCAGCGUGGCAAAAUGGCUGUGGCUAGACUGCC,0.15
9,GGCCGAGCUCAACACAUCGUGGCAAAGUUGGCGUGGCUAGACUGCC,0.03
10,GGCAGAGCUCAACACAGCGUCGCAAAGUGGCUGUGUCUAGAGUGCC,0.02
11,GGCAGAGCUCAACACAUCCUGGCAAAGUAGCUGUGGCUUGACUGCC,0.13
12,GGCAGAGUUCAACACAGCGUGGCAAAGUGGCUGUGGGUAGACUCCC,0.04
13,GGCAGAGCUCAACACAGCGUCGCAAAGUGGCUGUGGCCAUACUGUC,0.08
14,GGCUGAGCUCGACACAGCAUGGCAAAGUGGCUGUGGCUAGACUGCC,0.02
15,GGCAGAGCUCAACACUGCGUGGCAAAGAGGCUGUGGCUAGAGUGCC,0.03
16,GGCAGAGCUCAACACAACAUGGCAAAGUGGAUGUGGCUAGACUGCA,0.28
17,GGCAGAGCUCAACACGGCGUGGCAAAAUGGCUGUGGCUAGAUUGCC,0.01
18,GGAAGAGCUUAACUCAGCGUGGCGAAAUGGCUGUGGCUAGACUGCC,0.08
19,GGCAGAGCUCAAUAUAGCGUGGCAAAUUGGCUGUGGCUAGACUGCC,0.55
20,GGCGGAGCUCAACACAGCCUGGUUAAGUGGCUGUGGCUAGACUGCC,0.22
21,GGCAGAGCGCAACACAGCGUGGCAAAGUGGUUGUGGCUAGAAUGCC,0.02
22,GGCAGAGCUAAACACAGCGUGUCGAAGUGGCUGUGGCUAGACUGCC,0.02
23,GGCAGAGGUCAACACAUCGUGGCAAAGUGUCGGUGGCUAGACUGCC,0.02

row,Variant,self-cleavage
1,GGCAGAGCUCAACACAACGUGGCAAAGUGGCUGUAGCUAGAGUGCC,0.01
2,GGCAGAGGUUAACACAGCGGGGCAAAGUGGCUGUGGCUAGACUGCC,0.04
3,GGCACAGCUCAACACAGCGUGGCAAAGUUGCCGUGGCUAGACUGUC,0.02
4,GGCAGAGGUCAACACAGCGUGGCCAAGUGUCUGUGGCUAGACUGCC,0.02
5,GGAAGAGCUCACCAAAGAGUGGCAAAGUGGCUGUGGCUAGACUGCC,0.06
6,GGCAGAGCUCAACGCAGCGUGGCAAAGUAGCGGUGACUAGACUGCC,0.02
7,GGCAAAGCUCUACACAGCGUCGCAAAGUGUCUGUGGCUAGACUGCC,0.03
8,GGAAGAGCUCAACACAGAGUGGCAAAGUGGGUGUGUCGAGAAUGCC,0.01
9,GGCAGAGCUUAACACAUCGUGGCAAAGUAGCUGUGGCUAGACUGCC,0.02
10,AGCCGAGCUCAACACAGCGUGGCAAAGUCGCUGUGGCGAGACUGCC,0.01
11,GGCAGAGCUCAACACAGCGUGACAAAAUGGCUUUGGCUAGCCUGCC,0.09
12,GGCCGAGCUAAGCACAGCGUGGCAAAGUGUCUGUGGCUAGACUGCC,0
13,GGCAGAGCUCAACACAGCGUGGCAAAGUGGCUGCGGCUAGAGCGCC,0.1
14,GGCAGUGCUCAACACAGCGUGGCAAAGUGGCUGUGGCUGUACUGCC,0.09
15,GGCAGAGCUCAUCACAGAGUGGCAAAAUGUCUGUGGCUAGACUGCC,0.32
16,GGCAUAGAUCAACACAGCGUGGCACAGUGGCUGUGGCUAGACUGCC,0.25
17,GGCCGAGCAAAACACAACGUGGCAAAGUGGCUGUGGCUAGACUGCC,0.04
18,GGCAGAACUCAACACAGCGGGGCAAAGUGGAUGUGGCUAGACUGUC,0.15
19,GGCAGAGCUCAACACAGCGUGGCAAAGUGGAUGUGGCGGGACUGCC,0.15
20,GGCAGAGCUCAACACAGCGCGGCAAAGUGCCUGUGCCUAGACUGCC,0.08
